No constants are given. Whether binding was seen depends on the method and setting. Binding seen in cells or lysates may run through a third protein. Some entries that bind do so weakly or less than the wild type. Each block holds one molecule with its values, some of them ahead of it.
Assays:
[1] = target: human PKR (double-stranded RNA-activated protein kinase R) expressed in pkr-null MEFs (human) (UniProt P19525); test: co-IP; immunoprecipitation with antibodies to PKR or RHA from pkr-null MEFs expressing human PKR, treated with pIC (100 ug/ml, 2 h); Western blot with the opposing antibody
[2] = target: human PKR (double-stranded RNA-activated protein kinase R) expressed in pkr-null MEFs (human) (UniProt P19525); test: co-IP; as a3, cells not treated with pIC
[3] = target: GST-RHA fusion protein encoding amino acid residues 1 to 263 (UniProt Q08211); test: pull-down; GST-RHA fusion constructs on glutathione beads incubated with in vitro translated 35S-PKR in cleared E. coli lysate, 2 h, 4 C; five rinses in 50 mM K3PO4 pH 7.5, 150 mM KCl, 1 mM MgCl2, 10% glycerol, 1% Triton X-100; autoradiography; only the target purified
[4] = target: GST-RHA fusion protein encoding amino acids 1 to 79 (first RBM) (UniProt Q08211); test: as above
[5] = target: GST-RHA fusion protein encoding amino acid residues 1 to 263 (UniProt Q08211); test: pull-down; as a5, ~20 ug GST-RHA 1-263 incubated with a 16 bp dsRNA at 10, 100 or 1000-fold excess for one hour before 35S-PKR was added; only the target purified
[6] = target: murine RNA helicase A (RHA), endogenous in MEFs (mouse (endogenous in MEFs)) (UniProt O70133); test: co-IP; immunoprecipitation with a mouse monoclonal anti-RHA antibody from wild-type MEFs (pkr-null MEFs as control); Western blot for murine PKR

The chains behind the UniProt entries cited, without tags or fusion partners. Residues count along the entry.
UniProt P19525: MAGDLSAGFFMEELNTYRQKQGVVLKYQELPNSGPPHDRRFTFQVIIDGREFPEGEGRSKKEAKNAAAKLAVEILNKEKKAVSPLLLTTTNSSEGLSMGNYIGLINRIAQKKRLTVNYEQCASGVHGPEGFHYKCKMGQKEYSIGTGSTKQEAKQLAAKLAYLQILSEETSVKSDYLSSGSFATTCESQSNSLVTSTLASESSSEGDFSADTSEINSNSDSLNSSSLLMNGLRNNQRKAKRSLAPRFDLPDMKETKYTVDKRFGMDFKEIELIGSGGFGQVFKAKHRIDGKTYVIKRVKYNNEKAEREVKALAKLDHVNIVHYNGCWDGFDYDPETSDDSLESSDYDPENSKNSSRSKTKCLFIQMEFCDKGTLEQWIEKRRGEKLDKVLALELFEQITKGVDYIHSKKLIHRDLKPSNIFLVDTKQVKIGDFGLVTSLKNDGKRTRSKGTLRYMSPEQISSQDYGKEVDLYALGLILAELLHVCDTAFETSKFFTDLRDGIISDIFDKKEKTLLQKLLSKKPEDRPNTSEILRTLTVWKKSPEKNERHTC
GST-RHA fusion protein encoding amino acid residues 1 to 263 (Q08211, residues 1-263): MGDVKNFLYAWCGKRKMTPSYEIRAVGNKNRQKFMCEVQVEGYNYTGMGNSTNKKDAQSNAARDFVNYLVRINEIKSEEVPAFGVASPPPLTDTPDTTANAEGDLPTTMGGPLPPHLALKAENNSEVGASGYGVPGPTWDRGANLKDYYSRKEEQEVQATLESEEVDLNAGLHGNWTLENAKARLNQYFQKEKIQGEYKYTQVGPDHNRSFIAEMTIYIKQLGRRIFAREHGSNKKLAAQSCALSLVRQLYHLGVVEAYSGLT
GST-RHA fusion protein encoding amino acids 1 to 79 (first RBM) (Q08211, residues 1-79): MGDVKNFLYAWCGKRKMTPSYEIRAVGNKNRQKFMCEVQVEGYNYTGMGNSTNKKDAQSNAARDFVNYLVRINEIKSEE
UniProt O70133: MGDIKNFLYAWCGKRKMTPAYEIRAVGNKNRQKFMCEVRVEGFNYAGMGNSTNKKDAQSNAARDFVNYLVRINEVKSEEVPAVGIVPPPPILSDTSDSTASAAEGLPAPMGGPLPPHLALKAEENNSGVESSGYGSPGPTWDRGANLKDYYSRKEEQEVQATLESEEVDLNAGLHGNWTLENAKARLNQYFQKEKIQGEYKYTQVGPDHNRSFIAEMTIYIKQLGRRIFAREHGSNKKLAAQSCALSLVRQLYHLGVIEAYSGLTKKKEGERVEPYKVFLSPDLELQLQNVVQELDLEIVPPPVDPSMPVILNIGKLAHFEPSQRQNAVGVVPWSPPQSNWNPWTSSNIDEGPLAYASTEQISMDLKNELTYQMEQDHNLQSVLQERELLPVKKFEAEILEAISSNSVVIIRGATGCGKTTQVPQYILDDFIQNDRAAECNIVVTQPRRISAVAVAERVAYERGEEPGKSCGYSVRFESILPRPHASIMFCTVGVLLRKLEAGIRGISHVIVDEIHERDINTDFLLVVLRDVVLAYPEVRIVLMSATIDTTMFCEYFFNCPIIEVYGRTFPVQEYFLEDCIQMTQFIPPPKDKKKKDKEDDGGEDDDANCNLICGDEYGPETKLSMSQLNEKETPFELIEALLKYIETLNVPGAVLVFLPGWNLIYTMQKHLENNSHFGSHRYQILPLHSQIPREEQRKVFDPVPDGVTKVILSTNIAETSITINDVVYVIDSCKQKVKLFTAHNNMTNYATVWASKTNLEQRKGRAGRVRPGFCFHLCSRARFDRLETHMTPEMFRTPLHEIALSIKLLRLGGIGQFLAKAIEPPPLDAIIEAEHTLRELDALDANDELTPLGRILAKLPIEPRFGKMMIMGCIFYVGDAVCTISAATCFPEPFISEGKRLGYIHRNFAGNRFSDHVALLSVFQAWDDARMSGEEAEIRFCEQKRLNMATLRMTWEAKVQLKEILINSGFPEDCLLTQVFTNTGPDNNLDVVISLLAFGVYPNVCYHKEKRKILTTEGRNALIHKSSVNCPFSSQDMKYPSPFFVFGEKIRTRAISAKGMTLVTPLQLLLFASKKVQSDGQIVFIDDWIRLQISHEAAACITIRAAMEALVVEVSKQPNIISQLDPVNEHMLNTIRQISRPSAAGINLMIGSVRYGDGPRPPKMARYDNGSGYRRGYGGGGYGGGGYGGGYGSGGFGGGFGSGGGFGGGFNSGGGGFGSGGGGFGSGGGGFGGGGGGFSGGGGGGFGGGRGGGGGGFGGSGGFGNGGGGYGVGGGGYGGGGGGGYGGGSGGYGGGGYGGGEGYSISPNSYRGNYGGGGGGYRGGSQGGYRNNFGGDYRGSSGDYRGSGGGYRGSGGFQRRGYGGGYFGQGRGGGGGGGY

binding [1]: binds
Molecule: murine RNA helicase A (RHA), endogenous in MEFs (from UniProt O70133 1-1380) (enzyme)
binding [2]: no binding (condition: cells not treated with pIC)

binding [3]: binds | binding [4]: no binding | binding [5]: binds
Molecule: 35S-labeled PKR synthesized in vitro (from UniProt P19525 1-551) (enzyme)

binding [6]: binds
B1: murine PKR, endogenous in wild-type MEFs (enzyme, UniProt Q03963 1-515)
chain: MASDTPGFYMDKLNKYRQMHGVAITYKELSTSGPPHDRRFTFQVLIDEKEFPEAKGRSKQEARNAAAKLAVDILDNENKVDCHTSASEQGLFVGNYIGLVNSFAQKKKLSVNYEQCEPNSELPQRFICKCKIGQTMYGTGSGVTKQEAKQLAAKEAYQKLLKSPPKTAGTSSSVVTSTFSGFSSSSSMTSNGVSQSAPGSFSSENVFTNGLGENKRKSGVKVSPDDVQRNKYTLDARFNSDFEDIEEIGLGGFGQVFKAKHRIDGKRYAIKRVKYNTEKAEHEVQALAELNHVNIVQYHSCWEGVDYDPEHSMSDTSRYKTRCLFIQMEFCDKGTLEQWMRNRNQSKVDKALILDLYEQIVTGVEYIHSKGLIHRDLKPGNIFLVDERHIKIGDFGLATALENDGKSRTRRTGTLQYMSPEQLFLKHYGKEVDIFALGLILAELLHTCFTESEKIKFFESLRKGDFSNDIFDNKEKSLLKKLLSEKPKDRPETSEILKTLAEWRNISEKKKRNTC
